# Where “and” joins values, the source holds several entries; their conditions need not be identical. Equal entries are not always repeated. The source gives many values for each of these; only a part stands here.
# Experiments:
# [1] = test system: WI‐26 VA4 cells stably expressing EV (empty vector); test: Collagen ELISA in cells stably expressing EV; conditions: WI-26 VA4 EV; 300000 nM; replicates of Experiments #1-#4
# WI‐26 VA4 cells [2] = test: CellTiter‐Glo assay (cytotoxicity)
# WI‐26 VA4 cells [3] = test: Collagen ELISA (secreted pro‐collagen I)
# [4] = test system: WI‐26 VA4 cells stably expressing PARS1 FA/EA/RL mutant; test: Collagen ELISA in cells stably expressing PARS1 mutant; conditions: WI-26 VA4 Flag-PARS1 FA/EA/RL; 300000 nM; replicates of Experiments #1-#4
smiles,measurement,setting,value
O[C@H]1CCCN[C@@H]1CCCn1cnc2c(Cl)c(Cl)ccc21 [DWN12088],"Collagen level, single replicates",[1],2.52 % of control and 1.96 % of control and 1.77 % of control and 2.30 % of control and 1.46 % of control and 2.56 % of control and 2.85 % of control and 3.67 % of control
same,CellTiter-Glo % of control,"WI‐26 VA4 cells [2]; 10 nM, Experiment #1, replicates, 0.01 µM",99.24 % of control
same,CellTiter-Glo % of control,"WI‐26 VA4 cells [2]; 10 nM, Experiment #2, replicates, 0.01 µM",106.35 % of control
same,CellTiter-Glo % of control,"WI‐26 VA4 cells [2]; 30 nM, Experiment #1, replicates, 0.03 µM",98.78 % of control
same,CellTiter-Glo % of control,"WI‐26 VA4 cells [2]; 30 nM, Experiment #2, replicates, 0.03 µM",112.66 % of control
same,CellTiter-Glo % of control,"WI‐26 VA4 cells [2]; 100 nM, Experiment #1, replicates, 0.1 µM",107.72 % of control
same,CellTiter-Glo % of control,"WI‐26 VA4 cells [2]; 100 nM, Experiment #2, replicates, 0.1 µM",114.66 % of control
same,CellTiter-Glo % of control,"WI‐26 VA4 cells [2]; 300 nM, Experiment #1, replicates, 0.3 µM",104.28 % of control
same,CellTiter-Glo % of control,"WI‐26 VA4 cells [2]; 300 nM, Experiment #2, replicates, 0.3 µM",116.85 % of control
same,CellTiter-Glo % of control,"WI‐26 VA4 cells [2]; 1000 nM, Experiment #1, replicates, 1 µM",96.94 % of control
same,CellTiter-Glo % of control,"WI‐26 VA4 cells [2]; 1000 nM, Experiment #2, replicates, 1 µM",99.07 % of control
same,CellTiter-Glo % of control,"WI‐26 VA4 cells [2]; 3000 nM, Experiment #1, replicates, 3 µM",77.92 % of control
same,CellTiter-Glo % of control,"WI‐26 VA4 cells [2]; 3000 nM, Experiment #2, replicates, 3 µM",82.22 % of control
same,CellTiter-Glo % of control,"WI‐26 VA4 cells [2]; 10000 nM, Experiment #1, replicates, 10 µM",68.98 % of control
same,CellTiter-Glo % of control,"WI‐26 VA4 cells [2]; 10000 nM, Experiment #2, replicates, 10 µM",77.22 % of control
same,CellTiter-Glo % of control,"WI‐26 VA4 cells [2]; 30000 nM, Experiment #1, replicates, 30 µM",35.29 % of control
same,CellTiter-Glo % of control,"WI‐26 VA4 cells [2]; 30000 nM, Experiment #2, replicates, 30 µM",29.91 % of control
same,CellTiter-Glo % of control,"WI‐26 VA4 cells [2]; 100000 nM, Experiment #1, replicates, 100 µM",23.83 % of control
same,CellTiter-Glo % of control,"WI‐26 VA4 cells [2]; 100000 nM, Experiment #2, replicates, 100 µM",18.44 % of control
same,CellTiter-Glo % of control,"WI‐26 VA4 cells [2]; 300000 nM, Experiment #1, replicates, 300 µM",1.94 % of control and 0.52 % of control
same,CellTiter-Glo % of control,"WI‐26 VA4 cells [2]; 300000 nM, Experiment #2, replicates, 300 µM",3.65 % of control and 1.39 % of control
same,CellTiter-Glo % of control,"WI‐26 VA4 cells [2]; 1000000 nM, Experiment #1, replicates, 1000 µM",0.52 % of control and -0.09 % of control
same,CellTiter-Glo % of control,"WI‐26 VA4 cells [2]; 1000000 nM, Experiment #2, replicates, 1000 µM",0.23 % of control and -0.23 % of control
same,"Efficacy, % of control, single replicate","WI‐26 VA4 cells [3]; 30 nM, 0.03 µM",97.45 % of control and 107.68 % of control and 96.79 % of control and 97.21 % of control
same,"Efficacy, % of control, single replicate","WI‐26 VA4 cells [3]; 100 nM, 0.1 µM",99.89 % of control and 106.55 % of control and 91.48 % of control and 90.62 % of control
same,"Efficacy, % of control, single replicate","WI‐26 VA4 cells [3]; 300 nM, 0.3 µM",98.64 % of control and 105.63 % of control and 105.99 % of control and 111.62 % of control
same,"Efficacy, % of control, single replicate","WI‐26 VA4 cells [3]; 1000 nM, 1 µM",76.07 % of control and 64.54 % of control and 68.60 % of control and 95.40 % of control and 106.69 % of control
same,"Collagen, % of control (single replicates per experiment)","WI‐26 VA4 cells [3]; 3000 nM, 3 µM",55.93 % of control and 57.72 % of control and 25.55 % of control and 24.34 % of control and 62.95 % of control and 61.18 % of control
same,"Collagen, % of control (single replicates per experiment)","WI‐26 VA4 cells [3]; 10000 nM, 10 µM",4.33 % of control and 4.22 % of control and 22.62 % of control and 25.63 % of control and 11.12 % of control and 10.54 % of control and 14.80 % of control and 15.17 % of control
same,"Efficacy, % of control, single replicate","WI‐26 VA4 cells [3]; 10000 nM, 10 µM",15.01 % of control and 14.97 % of control and 9.45 % of control and 9.83 % of control
same,"Collagen, % of control (single replicates per experiment)","WI‐26 VA4 cells [3]; 30000 nM, 30 µM",3.30 % of control and 2.75 % of control and 9.40 % of control and 10.24 % of control and 1.82 % of control and 1.68 % of control and 4.46 % of control and 4.03 % of control
same,"Efficacy, % of control, single replicate","WI‐26 VA4 cells [3]; 30000 nM, 30 µM",4.00 % of control and 4.88 % of control and 3.19 % of control and 3.44 % of control
same,"Collagen, % of control (single replicates per experiment)","WI‐26 VA4 cells [3]; 100000 nM, 100 µM",2.29 % of control and 3.51 % of control and 8.06 % of control and 7.63 % of control and 0.71 % of control and 1.08 % of control and 2.44 % of control
same,"Efficacy, % of control, single replicate","WI‐26 VA4 cells [3]; 100000 nM, 100 µM",2.36 % of control and 2.99 % of control and 3.48 % of control and 1.67 % of control and 2.10 % of control
same,"Collagen, % of control (single replicates per experiment)","WI‐26 VA4 cells [3]; 300000 nM, 300 µM",4.38 % of control
same,"Collagen level, single replicates",[4],1.71 % of control and 1.29 % of control and 1.22 % of control and 1.04 % of control and 1.28 % of control and 2.00 % of control and 1.09 % of control and 1.35 % of control
